In all, about 33,000 sequences were measured (“E-score (-0.5 to 0.5)”: median about -0.032, highest 2% from about 0.36 on). The list shows a part of the results.
molecular target: T1, Sko1 (UniProt Q02100); experiment: PBM E-score (8-mer binding enrichment) (E-score (-0.5 to 0.5)); higher = stronger / more preferred TF binding; most listed sequences are background and not binding sites; conditions: protein concentration: 200 nM; construct: GST-full length
T1 sequence: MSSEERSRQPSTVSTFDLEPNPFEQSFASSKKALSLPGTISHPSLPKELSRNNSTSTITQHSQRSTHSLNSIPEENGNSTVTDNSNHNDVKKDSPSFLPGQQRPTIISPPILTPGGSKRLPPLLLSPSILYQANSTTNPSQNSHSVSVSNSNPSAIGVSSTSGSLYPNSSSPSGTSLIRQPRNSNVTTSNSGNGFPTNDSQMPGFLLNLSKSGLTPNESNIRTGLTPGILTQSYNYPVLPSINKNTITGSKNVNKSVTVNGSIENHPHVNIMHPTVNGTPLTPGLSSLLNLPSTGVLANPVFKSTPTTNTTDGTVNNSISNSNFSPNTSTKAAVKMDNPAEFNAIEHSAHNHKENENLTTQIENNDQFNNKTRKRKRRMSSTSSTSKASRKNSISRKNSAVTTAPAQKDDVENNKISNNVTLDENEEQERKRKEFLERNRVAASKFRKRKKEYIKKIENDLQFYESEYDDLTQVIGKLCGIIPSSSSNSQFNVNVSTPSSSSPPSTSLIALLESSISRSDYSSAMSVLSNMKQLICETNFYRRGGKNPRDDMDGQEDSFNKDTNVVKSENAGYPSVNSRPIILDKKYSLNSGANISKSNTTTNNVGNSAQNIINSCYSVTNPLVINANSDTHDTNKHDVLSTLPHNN
Method in brief: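 The E-score, a modified Wilcoxon-Mann-Whitney statistic, was computed by the Universal PBM Analysis Suite for every ungapped eight-base word pooled with its reverse complement. Scans behind it were normalised with masliner after bound GST-tagged yeast transcription factors were detected with fluorescent anti-GST. The proteins, at about 100-200 nM, had been applied to universal all-10-mer Agilent arrays made double-stranded by primer extension.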

| Sequence | PBM E-score |
| --- | --- |
| GTCCTCTA | -0.231 |
| AGACTTCA | -0.038 |
| AATAAGAA | 0.0689 |
| AATTGGTA | 0.126 |
| CGATTCAG | -0.0385 |
| GCTGTCTA | -0.155 |
| CCATTAGC | 0.00959 |
| AAGAGTCT | -0.275 |
| CAAGGTCG | -0.191 |
| CACTGAAG | -0.222 |
| CGGGCCTC | -0.0722 |
| CGAGTTAA | 0.202 |
| AAAACACC | 0.0848 |
| CTTCAGCC | -0.149 |
| ACGTAGCG | 0.42 |
| ACGACAAA | 0.223 |
| AGCAGGCA | -0.204 |
| TACCACAA | 0.209 |
| AGTCGATC | -0.162 |
| TCCTAACA | 0.0335 |
| CGGCGGGC | -0.195 |
| GGTAGTTA | 0.0808 |
| ACGCTGGG | -0.109 |
| GTGATTCA | 0.0454 |
| CGTAATTA | 0.439 |

| Sequence | PBM E-score |
| --- | --- |
| CAGATCAC | -0.0715 |
| CGTACGAC | 0.308 |
| GGAGTCGA | -0.324 |
| CGATGGAG | -0.142 |
| ACTGGGAT | -0.113 |
| AGGCAAGG | -0.225 |
| CGGCAGGC | -0.236 |
| ACATATAC | 0.202 |
| ATGGACGG | -0.116 |
| CAGTCCGC | -0.145 |
| CACCGTGG | -0.187 |
| GGCTGCGA | -0.0587 |
| AGCTAAAG | 0.161 |
| CATCAAAG | -0.0695 |
| ACTACGTG | 0.415 |
| AAACCTTA | 0.0644 |
| AAACTATA | 0.0408 |
| ACGACGCC | 0.0289 |
| ATGCGAGA | -0.0225 |
| CCGCTGCC | -0.311 |
| CAAATACC | -0.0908 |
| ATCGTGAG | -0.176 |
| CGCGTCAA | 0.34 |
| CGAATCTC | 0.0112 |
| AGCCAAAC | -0.0154 |

| Sequence | PBM E-score |
| --- | --- |
| ATACTAAA | 0.195 |
| CAATCGGG | -0.0624 |
| CTGCGTCC | -0.112 |
| GGCTTTAA | -0.0239 |
| GAGATCTC | -0.19 |
| ATCCTGTA | 0.106 |
| TAGAGACA | -0.0315 |
| GGCATTAC | 0.169 |
| AGCAAATG | -0.0717 |
| AGATGAGC | 0.116 |
| TATGTAGA | 0.215 |
| CCGAGCTA | -0.221 |
| CACGAGGA | -0.213 |
| CATGCAAG | -0.184 |
| ATGGTGGC | -0.29 |
| ATATTTAC | 0.27 |
| GAGTCATA | 0.122 |
| GGAACGGA | -0.185 |
| AAAAGTGA | 0.132 |
| CGCCTACA | -0.0932 |
| AGTAACAA | 0.203 |
| GCACGCAA | 0.252 |
| CGCCTAGC | -0.346 |
| GGAATATA | 0.0732 |
| CTACAGAG | 0.0909 |

| Sequence | PBM E-score |
| --- | --- |
| CCCACGAA | 0.0343 |
| CTTAGGAC | -0.042 |
| AGTGTTTG | 0.117 |
| TACTAGCA | 0.114 |
| TCCAGTAA | -0.181 |
| CGGCTGAC | 0.0465 |
| CTTCTCGC | -0.111 |
| AGCTACAC | 0.036 |
| AGCGAACG | -0.129 |
| CGGAGCCG | -0.321 |
| ACGAATCG | 0.238 |
| CGGTTGCA | -0.176 |
| GATACAGA | -0.07 |
| ATCATGAG | 0.211 |
| GATACCTA | 0.138 |
| ATTTCGCC | -0.0513 |
| CGTTTCTA | 0.247 |
| CATGCCAG | -0.191 |
| GAAGGTGC | -0.314 |
| GTTCTCTA | 0.0251 |
| CGCTTAGA | -0.155 |
| GATATCTA | 0.0935 |
| CATCGCCA | 0.0684 |
| AAACCCTT | -0.0434 |
| CCAAGATA | 0.0108 |

| Sequence | PBM E-score |
| --- | --- |
| AACTGGCC | -0.148 |
| ACGATGTC | 0.204 |
| AGCGTTAT | 0.0494 |
| ACATTTAG | -0.106 |
| TCGATCGA | -0.216 |
| GATAGGTA | 0.18 |
| GCTCGCGA | -0.055 |
| AATCCTGG | -0.199 |
| CGCCGTGC | -0.189 |
| CCGTGAGG | -0.306 |
| CGATACTC | -0.149 |
| CCCAGGCA | -0.382 |
| AACGGCCG | -0.14 |
| AGACGTAC | 0.395 |
| AACCTCTC | -0.198 |
| TGTTAGAA | 0.0715 |
| ACACCTAT | 0.143 |
| GGCTGGGA | -0.314 |
| CATCCCGA | -0.132 |
| GCCTCTCA | -0.182 |
| GTATAAAA | 0.249 |
| GTAACTTA | 0.262 |
| GGTTTCAC | -0.0471 |
| TCGTTAGA | -0.101 |
| AGTTCTAT | -0.0676 |

| Sequence | PBM E-score |
| --- | --- |
| ATGCGGAG | -0.244 |
| ACAACATG | 0.17 |
| ACGAGTGA | 0.162 |
| CTGTTGGC | -0.256 |
| GGCGCGAA | -0.151 |
| GTGAACAC | 0.00302 |
| ATATATTA | 0.295 |
| AGTGACCA | -0.178 |
| TCTTAGCA | -0.0369 |
| AGTAAGTG | -0.0892 |
| TCCGAACA | -0.124 |
| AAAGGGGA | -0.232 |
| ACACTGTG | 0.126 |
| ACACGCAC | 0.158 |
| CGCGCGAC | 0.0535 |
| CAGAAGGG | -0.147 |
| ATCCGCCC | -0.285 |
| GACACACA | 0.178 |
| ACGCCACG | 0.229 |
| CCGCCAGA | -0.0664 |
| CAGCAGCC | -0.0687 |
| ACGGTCAC | -0.121 |
| CACGCAAC | 0.379 |
| AACACCTA | 0.0909 |
| CCCATGCC | -0.26 |

| Sequence | PBM E-score |
| --- | --- |
| GCTACCCC | -0.342 |
| CGTACCAC | 0.253 |
| GATAAGCC | -0.294 |
| CCGCTCCA | -0.334 |
| ACCCACCG | -0.0732 |
| GTAATCAC | 0.25 |
| AGCGCACA | -0.121 |
| CGTAGTTA | 0.357 |
| ATCGGGAA | 0.0139 |
| CACGCGTG | 0.186 |
| CCGATCAG | -0.185 |
| TACCCAGA | -0.102 |
| ACGTTAAT | 0.32 |
| CACCGAAC | -0.0581 |
| CCCCGTTC | -0.171 |
| AACCGTAC | -0.103 |
| GCGGCCAA | -0.226 |
| ATTCCTGG | -0.187 |
| GAAGGGGA | -0.118 |
| ATTACTAG | -0.023 |
| ACATGGGA | -0.105 |
| GGCTTGTA | -0.158 |
| CCCGTAAA | -0.102 |
| AGGCTCCA | -0.175 |
| CATATTAG | 0.203 |

| Sequence | PBM E-score |
| --- | --- |
| GACCTTCC | -0.0895 |
| GACCGGTC | -0.0591 |
| GTATGTAA | 0.312 |
| CACAATTA | 0.267 |
| ACACGGAC | -0.113 |
| CATCTCAC | 0.0578 |
| CTCTCTCA | -0.101 |
| CTCCGGCC | -0.304 |
| CACACACC | -0.149 |
| AACCGATC | -0.0994 |
| GTCACATA | 0.32 |
| AGCACCAA | -0.158 |
| AAGGATTG | 0.0863 |
| ACATCGTG | 0.0903 |
| CCATCCGC | -0.0352 |
| AAGTTTGT | 0.0394 |
| GCCTTACA | -0.0297 |
| CGGATCAC | 0.0411 |
| AAGTTCTC | -0.203 |
| AGTAAGCG | 0.0351 |
| CCACCGTC | -0.325 |
| TATGCTAA | 0.0795 |
| AGACAGCC | -0.219 |
| TATACGGA | 0.00941 |
| CCCTTTAA | -0.0757 |

| Sequence | PBM E-score |
| --- | --- |
| CTGAACGA | -0.0578 |
| AAGTACCG | -0.032 |
| CACGCCTG | -0.0166 |
| CGCATTGC | 0.18 |
| ATGCCGTA | 0.169 |
| ATCGAAGA | 0.0616 |
| CTCCTCTC | -0.299 |
| GCCCCCAC | -0.315 |
| CGTAATAA | 0.434 |
| TACAGCCA | -0.177 |
| TTCCACAA | -0.0146 |
| CGTATCGC | 0.234 |
| ACGAGGAC | -0.205 |
| CGCACTAA | 0.00313 |
| CAAGGCAG | -0.285 |
| AGGCGTGA | 0.121 |
| CCTCAAGG | -0.172 |
| TGGCGTAA | 0.414 |
| ATGCAGGC | -0.024 |

Reference: the supplement of paper PMC3334620
